Laboratory results reported in PubChem BioAssay AID686979 (National Center for Advancing Translational Sciences (NCATS), 2013).
Several values for one entry are separate records, joined by “and”; a condition that tells them apart may be missing. Equal entries are not always repeated. The campaign covered roughly 420,000 compounds. About 50,000 (12%) were called active. The shares of active, inactive and inconclusive entries below differ from those in the screen. Calls come from the whole dose curve; as a rule, active = well fitted inhibition curve with a large enough effect; inconclusive = small, poorly fitted or top-dose-only effect; inactive = flat fitted curve, though single readings scatter. Where the call is inconclusive, the potency comes from a doubtful curve fit.

Assay: qHTS for Inhibitors of human tyrosyl-DNA phosphodiesterase 1 (TDP1): qHTS in cells in presence of CPT; note: nearly all actives have a fitted effect of over 55% in size
Details: chicken DT40 Tdp1-/-;hTDP1 cells + 20 nM CPT, ATP luminescence, 48 h; activity change, negative = growth inhibition: at 46.2 µM (top of the series)
Summary of the method: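 Chicken DT40 Tdp1-/- cells stably complemented with human TDP1 were seeded at 400 cells/well in medium containing 20 nM camptothecin, exposed to pin-transferred compounds, and grown at 37 °C for at least 48 hr. Viability was read as ATP luminescence.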
% is set by controls: 0 for no effect and ±100 for the full control effect; potency is the fitted concentration of half-maximal effect; tags give direction and shape of the fitted curve.

SMILES | Potency | activity change, negative = growth inhibition
Cc1cc(C)n2nc(SCc3cccc(S(=O)(=O)N(C)C)c3)nc2n1 | inconclusive: 11.6 µM [inhibitor, partial curve] | –
CN(C)Cc1cc(C(F)(F)F)ccc1C(O)(c1ccccc1)c1ccccc1 | inconclusive: 29.1 µM [inhibitor, single point] | –
N#Cc1ccccc1OC[C@H](O)CNCCNC(=O)Nc1ccccc1 | inconclusive: 33.5 µM [inhibitor, single point] | –
CC(=O)NC(c1ccc(Cl)cc1)c1c(O)ccc2ccc(O)cc12 (stereo unspecified) | inconclusive: 8.2 µM [inhibitor, partial curve] | –
O=S(=O)(c1cccc(Cl)c1)n1c(/C=C/c2ccccc2Cl)nc2ccccc21 | active: 18.4 µM | –
COc1cccc(-n2c(SC)nnc2C2CCN(CCC(C)c3ccc(C)o3)CC2)c1 (stereo unspecified) | inconclusive: 29.1 µM [inhibitor, single point] | –
Fc1cccc(Cc2c(-c3ccccc3)nc3ccc(Cl)cn23)c1 | inconclusive: 29.1 µM [inhibitor, single point] | –
COc1ccccc1C(=O)Nc1nc2ccc(S(C)(=O)=O)cc2s1 | inconclusive: 16.4 µM [inhibitor, single point] | –
COc1ccc(C(=O)OCC(=O)Nc2ccc3[nH]c(=O)[nH]c3c2)cc1 | inactive | –
Cc1ccc(C)c(Cn2c3ccccc3c3cnn(CC(=O)NC4CCCCCC4)c(=O)c32)c1 | inconclusive: 4.61 µM [inhibitor, partial curve] | –
Cc1ccc(-c2c3c(=O)n(C)c(=O)n(C)c3c3c(-c4cccc(C)c4)nc4ccccc4n23)cc1 | inconclusive: 1.64 µM [inhibitor, full curve, poor fit] | –
Cc1cc(C)c(S(=O)(=O)NCC2CCC(C(=O)NCCc3ccccc3)CC2)c(C)c1 (stereo unspecified) | active: 14.6 µM | –
COc1cccc(CCNC(=O)CC2C(=O)NCCN2Cc2ccc(C)o2)c1 (stereo unspecified) | inactive | –
O=C(Nc1ccc(NC(=O)c2cccs2)cc1)c1ccc(Br)o1 | inconclusive: 18.4 µM [inhibitor, single point] | –
Cc1ccc(-n2nnnc2SCC(=O)NC2CCCc3ccccc32)cc1 (stereo unspecified) | inconclusive: 20.6 µM [inhibitor, single point] | –
Cc1ccc(C(=O)c2c(NC(=O)c3ccccc3)sc(C)c2C)cc1 | inconclusive: 18.4 µM [inhibitor, partial curve] | –
O=C(CN1CCCCCC1)Nc1ccc(Br)cc1Br | inconclusive: 32.6 µM [inhibitor, single point] | –
COc1cc2c(cc1OC)C(SC)=NC1(CCCC1)C2 | active: 16.4 µM | –
COc1ccc(CN(Cc2ccco2)C(=O)COc2ccccc2Cl)cc1 | inconclusive: 18.4 µM [inhibitor, single point] | –
O=C(C1=C[C@H](C2CC2)C[C@H](OCCCCO)O1)N1CCN(Cc2ccc3c(c2)OCO3)CC1 | inconclusive: 20.6 µM [inhibitor, single point] | –
O=c1[nH][nH]c2c(N=Cc3ccccc3O)ccc(F)c12 | inconclusive: 25.9 µM [inhibitor, partial curve, poor fit] | –
COc1ccc(Cl)cc1CC1(C)C(=O)Nc2c(Cl)cccc21 (stereo unspecified) | inconclusive: 16.4 µM [inhibitor, single point] | –
COc1ccc(-c2cc(OC(=O)c3cccc(Cl)c3)c3c(C)oc(C)c3c(=O)c2)cc1OC | inconclusive: 29.1 µM [inhibitor, single point] | –
O=C(CC(=O)Nc1cccc(F)c1)Nc1cccc(F)c1 | inconclusive: 29.1 µM [inhibitor, single point] | –

SMILES | Potency | activity change, negative = growth inhibition
COc1cccc(-c2nn[nH]n2)c1O | inactive | –
N#Cc1nc(/C=C/c2ccc(F)cc2)oc1N1CCCCCC1 | inconclusive: 16.4 µM [inhibitor, single point] | –
CC(C)Oc1cc2ccccc2cc1CNC[C@H]1O[C@@H](n2cnc3c(N)ncnc32)[C@H](O)[C@@H]1O | inconclusive: 14.6 µM [inhibitor, partial curve, poor fit] | –
CCOc1ccccc1-c1cc(-c2n[nH]c(=S)n2CC)c2ccccc2n1 | inconclusive: 25.9 µM [inhibitor, single point] | –
Oc1cccc(O)c1O | active: 5.96 µM | –
COc1ccccc1/C=C/CN1CCOCC1 | inactive | –
Cc1ccc(NC(=O)/C(C#N)=C(\N)C(Cl)(Cl)Cl)nc1 | active: 0.58 µM | –
O=C(CCCOc1ccccc1)NNC(=O)c1ccncc1 | inactive | –
S=C(NCCCc1ccccc1)Nc1ccc(Cl)cc1 | inconclusive: 20.6 µM [inhibitor, single point] | –
COC1=CC(=O)C[C@@H](C)[C@]12Oc1c(Cl)c(OC)cc(OC)c1C2=O | inconclusive: 23.7 µM [inhibitor, single point] and inconclusive: 18.4 µM [inhibitor, single point] and inconclusive: 13 µM [inhibitor, partial curve, poor fit] | –
O=C(CSc1ccc(-c2ccc(F)cc2)nn1)N1CCCc2ccccc21 | active: 16.4 µM | –
O=C(Nc1ccc(Cl)c(C(F)(F)F)c1)C1Cc2c(-c3ccccc3)ccnc2O1 (stereo unspecified) | inconclusive: 29.1 µM [inhibitor, single point] | –
Cc1cc2nnc(SCC(=O)NCc3ccco3)n2c2ccccc12 | active: 4.61 µM | –
CN(C)CCNc1ncnc2sc(-c3ccccc3)cc12 | inconclusive: 20.6 µM [inhibitor, single point] | –
CC1CCC2(CC1)NC(=O)N(CC(=O)Nc1cccnc1Cl)C2=O (stereo unspecified) | inactive | –
CCCCn1c(N)c(N(CC(C)C)C(=O)c2cccc(S(=O)(=O)N(C)c3ccc(C)cc3)c2)c(=O)[nH]c1=O | inconclusive: 16.4 µM [inhibitor, single point] | –
CC1CCCCN1C(=S)Nc1ccc2nc3n(c(=O)c2c1)CCCCC3 (stereo unspecified) | inconclusive: 29.1 µM [inhibitor, single point] | –
COc1ccc(-n2ncc3c2ncn2nc(-c4ccc(OC)c(OC)c4)nc32)cc1 | inactive | –
CC1=C(C(=O)Nc2ccccc2)C(c2ccc(Br)cc2)n2nc(CCCO)nc2N1 (stereo unspecified) | inactive | –
CC(C)CNC(=S)N(CCCO)Cc1cc2cc3c(cc2[nH]c1=O)OCO3 | inconclusive: 20.6 µM [inhibitor, single point] | –
COc1ccc(C(=O)N/N=C(/C)c2cccc(NC(=O)c3ccccc3F)c2)cc1 | inconclusive: 25.9 µM [inhibitor, single point] | –
CC1CN(CCCCOc2ccc(F)cc2)CC(C)O1 (stereo unspecified) | inactive | –
Cn1ccc2cc(S(=O)(=O)N3CCCC(C(=O)NCc4ccccc4F)C3)ccc21 (stereo unspecified) | inconclusive: 18.4 µM [inhibitor, single point] | –
CC1CCCC(NC(=O)CCC(=O)N2CCOc3ccccc32)C1C (stereo unspecified) | inconclusive: 25.9 µM [inhibitor, single point] | –

SMILES | Potency | activity change, negative = growth inhibition
COc1ccccc1C(=O)COC(=O)c1ccccc1O | inactive | –
COc1cccc(C(O)c2ncc(-c3ccccc3)[nH]2)c1 (stereo unspecified) | inconclusive: 29.1 µM [inhibitor, single point] | –
CC(C)Oc1cccc(C(=O)Nc2ccccc2N2CCOCC2)c1 | inactive | –
CCCCN(CCCC)CCCNC(=O)c1cc(-c2ccc(Cl)s2)nc2ccccc12 | active: 13 µM | –
CC(C)c1ccc(C2CC(=O)N3CN(C4CCCCC4)CSC3=C2C#N)cc1 (stereo unspecified) | inconclusive: 29.1 µM [inhibitor, single point] | –
COc1ccccc1N(C)S(=O)(=O)c1ccc(C(=O)NC(C)c2ccccc2)cc1 (stereo unspecified) | inconclusive: 18.4 µM [inhibitor, partial curve] | –
COc1ccc(C(=O)Nn2c(C)nc3ccccc3c2=O)c(OC)c1 | inactive | –
COc1ccc(CN(C)CC(=O)Nc2ccccc2-c2ccccc2)c(OC)c1 | inconclusive: 29.1 µM [inhibitor, single point] | –
CCOc1ccc2nc(NC3=NC(c4ccc(OC)cc4)CC(=O)N3)nc(C)c2c1 (stereo unspecified) | active: 23.1 µM | –
O=C(CN1C(=O)NC2(CCCCC2)C1=O)Nc1nc2c(F)cc(F)cc2s1 | inconclusive: 29.1 µM [inhibitor, single point] | –
COc1ccccc1N1CCN(C(=O)c2nn(C)c3c2CS(=O)(=O)c2ccccc2-3)CC1 | inconclusive: 29.1 µM [inhibitor, single point] | –
O=C(NNC(=O)C1CC=CCC1)c1cccc(Br)c1 (stereo unspecified) | inactive | –
CCOC(=O)Nc1cc2c(cc1[N+](=O)[O-])-c1ccccc1C2=O | inconclusive: 20.6 µM [inhibitor, single point] | –
CCn1c(SCC(=O)NNC(=O)Cc2ccccc2)nnc1-c1ccccc1 | inactive | –
CCOc1ccc(S(=O)(=O)Nc2cccc(C(=O)NCC(c3ccco3)N(C)C)c2)cc1 (stereo unspecified) | – | inconclusive: -30.9% [inhibitor]
COc1cc(C(=O)N/N=C(\C)c2ccc3c(c2)OCO3)cc(OC)c1OC | active: 1.64 µM | –
COCCNc1ncncc1-c1ccccc1OC | inactive | –
CCOC(=O)c1c(CN2CCN(C)CC2)oc2ccc(OC)cc12 | inactive | –
Cn1c(=O)c2c(nc(NCc3ccco3)n2CCc2ccccc2)n(C)c1=O | active: 7.31 µM | –
O=C(O)C1C2CCCCC2=C2CCCCC2C1C(=O)c1ccccc1 (stereo unspecified) | inactive | –
CCN(CC)c1ccc(CN(C(=O)c2cc(=O)c3ccccc3o2)C2CCS(=O)(=O)C2)cc1 (stereo unspecified) | active: 16.4 µM | –
CCn1cc2nc(SCc3cc(C)ccc3C)n(Cc3ccc(Cl)cc3)c(=O)c2n1 | inconclusive: 20.6 µM [inhibitor, single point] | –
C(=Nc1cccnc1)c1ccnc2ccccc12 | active: 2 µM | –
